# Measurements taken from paper PMC4336329 (PLoS ONE, 2015).
# About 2,200 (0.71%) of roughly 310,000 compounds showed an effect of 50% or more. Effects have a minus sign here. Some of the results follow.
# Target: human ether-à-go-go-related gene (hERG) potassium channel (human, UniProt Q12809)
# Assay: primary screen, population patch clamp on CHO cells stably expressing hERG
# human ether-à-go-go-related gene (hERG) potassium channel, sequence (Q12809 whole entry, looked up): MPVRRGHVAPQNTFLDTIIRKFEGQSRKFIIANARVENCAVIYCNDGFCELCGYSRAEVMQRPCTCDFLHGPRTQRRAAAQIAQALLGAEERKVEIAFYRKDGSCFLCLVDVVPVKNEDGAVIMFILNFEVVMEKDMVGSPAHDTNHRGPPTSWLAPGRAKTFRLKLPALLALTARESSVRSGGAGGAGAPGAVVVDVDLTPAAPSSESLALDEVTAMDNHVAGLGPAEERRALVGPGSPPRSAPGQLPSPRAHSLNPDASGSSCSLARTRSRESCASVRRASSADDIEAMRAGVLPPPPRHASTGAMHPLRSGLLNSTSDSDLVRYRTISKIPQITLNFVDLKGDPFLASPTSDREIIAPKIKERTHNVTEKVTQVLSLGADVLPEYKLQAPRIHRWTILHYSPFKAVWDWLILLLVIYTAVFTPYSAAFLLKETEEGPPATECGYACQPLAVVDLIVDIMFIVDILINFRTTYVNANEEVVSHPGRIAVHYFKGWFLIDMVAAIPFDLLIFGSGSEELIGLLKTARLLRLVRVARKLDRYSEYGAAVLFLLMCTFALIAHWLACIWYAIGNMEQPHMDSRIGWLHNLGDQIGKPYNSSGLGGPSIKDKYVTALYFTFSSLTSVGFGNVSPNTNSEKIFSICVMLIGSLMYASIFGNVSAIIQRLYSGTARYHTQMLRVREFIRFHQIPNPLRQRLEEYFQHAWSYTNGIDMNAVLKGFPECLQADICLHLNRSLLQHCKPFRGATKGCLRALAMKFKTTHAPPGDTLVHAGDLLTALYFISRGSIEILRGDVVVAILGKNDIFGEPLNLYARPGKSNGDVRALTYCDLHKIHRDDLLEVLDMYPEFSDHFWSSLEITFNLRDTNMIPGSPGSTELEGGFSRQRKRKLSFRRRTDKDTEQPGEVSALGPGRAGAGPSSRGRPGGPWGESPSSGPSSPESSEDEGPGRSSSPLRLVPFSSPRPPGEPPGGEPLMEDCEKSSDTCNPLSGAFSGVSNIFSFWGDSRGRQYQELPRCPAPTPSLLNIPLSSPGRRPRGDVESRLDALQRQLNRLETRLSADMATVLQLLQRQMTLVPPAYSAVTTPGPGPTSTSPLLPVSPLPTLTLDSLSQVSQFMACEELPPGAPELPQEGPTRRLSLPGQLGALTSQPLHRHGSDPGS
row,SMILES,"hERG current change (%, negative = inhibition) at 1uM [%]"
1,O=S(=O)(NN=C1CCCCCC1)c1ccc(Cl)cc1,6.87
2,CCOC(=O)CN(C(=O)CSc1nnc(COc2ccc(OC)cc2)n1CC)c1ccccc1,-7.97
3,Cc1cc(=O)oc2cc(OCc3cc4c(cc3Cl)OCO4)ccc12,9.07
4,Cc1cnc(C(=O)OCC(=O)Nc2sc3c(c2C(N)=O)CCCC3)cn1,10.3
5,CC1CCCN(C(=O)COC(=O)C2CCN(S(=O)(=O)c3ccc4c(c3)OCCO4)CC2)C1 (stereo not drawn),-0.0808
6,O=C(NCCN1CCOCC1)c1ccc(Cl)c(Cl)c1,12.1
7,O=C(CCc1c[nH]c2ccccc12)N1CCN(S(=O)(=O)c2ccccc2)CC1,0.842
8,C#CCNC(=O)C1=C[C@@H](C)C[C@@H](OCc2ccc(CO)cc2)O1,14.5
9,Cc1ccc(CC2C(=O)N(c3ncccn3)C(=O)C2C)cc1 (stereo not drawn),14.4
10,O=C(Nc1ccccc1)c1cc2n(n1)C(C(F)(F)F)CC(C1CC1)N2 (stereo not drawn),1.94
11,Cc1c(CC(=O)N2CCC(C(N)=O)CC2)c(=O)oc2cc3c(cc12)CCC1(CCCCC1)O3,8.44
12,O=C(COc1ccc(S(=O)(=O)Nc2ccccc2)cc1)NCc1cccnc1,12.9
13,Cn1c(SCC(=O)NC2CCS(=O)(=O)C2)nnc1-c1ccco1 (stereo not drawn),10.3
14,O=C1CSC(c2cccs2)N1c1ccccc1 (stereo not drawn),12.2
15,COc1cccc(CNC(=O)Cc2ccc(-c3ccccc3)cc2)c1,11.3
16,CCOc1ccc(/C=C2\SC(=S)N(N3C(=O)C4CC4C3=O)C2=O)cc1 (stereo not drawn),1.67
17,Cc1cc(NC(=O)CCC(=O)N(c2ccc(F)cc2)C(C(=O)NC2CCCC2)c2ccncc2)no1 (stereo not drawn),21.3
18,O=C(COC(=O)C1(c2cccc(F)c2)CCCC1)NCc1cccs1,13.9
19,CCOC(=O)/C(C#N)=C\c1ccco1,13

row,SMILES,"hERG current change (%, negative = inhibition) at 1uM [%]"
1,CCCC(=O)Nc1nn(C)c2nc3ccc(C)cc3cc12,15.4
2,COc1cnn(C(C)(C)C)c(=O)c1Cl,13.8
3,O=C(COC(=O)c1nsc(Cl)c1Cl)NC1CCCCC1,14.1
4,CCC1CCC(N2CCN(c3ccc([N+](=O)[O-])cc3)CC2)CC1 (stereo not drawn),-74.5
5,CCCN1CCC(NC(=O)CCc2nnc(-c3ccccc3)o2)CC1,0.295
6,Cc1oc(/C=N/NC(=O)CN(c2ccccc2Br)S(C)(=O)=O)cc1Br,8.91
7,Cn1c(=O)n(Cc2ccccc2)c2ccccc21,9.25
8,Cc1cccc(NC(=O)C(=O)NCC2CCCO2)c1 (stereo not drawn),13.7
9,Cc1ccc(Nc2nc(COC(=O)C3CC3)cs2)cc1,11.1
10,CCOC(=O)C1CCN(C2=NC(=O)/C(=C/c3ccc(OC)c(OC)c3)S2)CC1,9.87
11,Cc1c(O)ccc(C(=O)CN2C(=O)c3ccccc3C2=O)c1O,16.4
12,O=C1C(=C2CCCCC2)SC(=S)N1Cc1ccco1,-0.779
13,Cc1cc(N2CCN(C)CC2)nc(-c2ccccc2O)n1,-0.898
14,COc1ccc(-c2nnn(Cc3nc(N)nc(N4CCOCC4)n3)n2)cc1OC,3.65
15,CCCC(=O)Nc1sc(C)c(-c2ccc(OC)cc2)c1C#N,11.4
16,CCCCN=C1SC(C(=O)Nc2sc3c(c2C(=O)OC)CCC3)C(N)=C1C(=O)N1CCOCC1 (stereo not drawn),-0.508
17,COc1cc(/C=C2/C(=O)ON=C2C)cc(Cl)c1O,10.5
18,CC(=O)c1ccc(OC(=O)C2c3ccccc3Oc3ccccc32)cc1,7.66
19,CCN(c1ccccc1)S(=O)(=O)c1cccc(C(=O)O)c1,6.99

row,SMILES,"hERG current change (%, negative = inhibition) at 1uM [%]"
1,COc1ccc(N2CCN(CC(=O)N3c4ccccc4CC3C)CC2)cc1.O=C(O)C(=O)O (stereo not drawn),-10.7
2,O=C(NNc1c(F)c(F)cc(F)c1F)c1ccc(Cl)nc1,23.7
3,CC/C(=N\NC(=O)c1nnn(-c2nonc2N)c1CN(C)c1ccccc1)c1ccccc1,13.4
4,CCC(=O)c1cn(CCOc2ccccc2OC)c2ccccc12,17.7
5,CNC(=O)CS(=O)CC(=O)Nc1cc(OC(C)C)c(Cl)cc1Cl (stereo not drawn),13.3
6,CCc1sc(C(=O)Nc2cccc(-n3cnnn3)c2)cc1C,2.55
7,O=C(COC(=O)c1ccncc1)Nc1ccccc1,9.42
8,Cc1ccc(N(CC(=O)NCC2CCCO2)C(=O)CCC(=O)Nc2cc(C)on2)cc1 (stereo not drawn),17.9
9,NC(=O)c1c(NC(NC(=O)c2ccco2)C(=O)c2ccc(Cl)cc2)sc2c1CCCC2 (stereo not drawn),7.66
10,COc1ccc(C2CC(c3cccs3)=NN2C(=O)CSc2nc(=O)n3ccccc3n2)cc1 (stereo not drawn),-11.7
11,C=Cn1cc[n+](CC(=O)C(C)(C)C)c1.[Br-],15.7
12,C=CCn1c(CNC(=O)c2ccco2)nnc1SCC(=O)Nc1cccc(Br)c1,-14.6
13,CCN(CC)C(=O)c1ccc(Nc2nnc(-c3ccc(O)cc3)c3ccccc23)cc1,17
14,Cc1cc2occ(CC(=O)NC3CCCc4ccccc43)c2cc1C (stereo not drawn),5.04
15,Cn1c(N2CCCCC2)nc2c1c(=O)[nH]c(=O)n2C,-2.9
16,O=C(Nc1ccc(Cl)c(S(=O)(=O)N2CCOCC2)c1)c1cn2ccccc2n1,12.6
17,CN(C(=O)c1ccc(NC(=O)Cc2cccc([N+](=O)[O-])c2)cc1)C1CC1,15.7
18,CCOC(=O)c1c(C)[nH]c(C(=O)COC(=O)C(C)N2C(=O)C3CCCCC3C2=O)c1C (stereo not drawn),8.24
19,O=C(CC1C(=O)NCCN1Cc1ccc(Cl)c(F)c1)NCC1CCOCC1 (stereo not drawn),10.8
